# ± gives the standard deviation. Over roughly 5,500 sequences, “pre-steady-state target cleavage rate” has its median near 0.1; the highest 2% begin near 0.64. Only a part is listed here, and it is no random draw.
# System: MIWI (PIWIL1) piRISC loaded with piRNA #2 (30 nt)
# Assay: pre-steady-state target cleavage rate (min^-1); MIWI and MILI are mouse PIWI proteins and EfPiwi is from a freshwater sponge; tags in brackets are library labels; higher = faster piRNA-guided slicing of the target
# Conditions: guide: piRNA #2 5'p-UUAGGUAACCCAGUAGAUCCAGAGGAAUUC; auxiliary factor: 500 nM mouse GTSF1
# Outline: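 Three pooled Cleave-'n-Seq trials supplied the data, with k3 capped at 0.0001 min^-1. In each, […] transcribed, DNA-blocked target RNA library and 1 nM active affinity-purified piRISC with one synthetic guide reacted in HEPES–potassium acetate buffer at 33 °C for 0–8 or 0–960 min, with or without 500 nM GTSF1 partner protein. Uncleaved targets were sequenced and normalised to depth and to weakly complementary targets. A burst-and-steady-state fit provided the pre-steady-state cleavage rate.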
row,Sequence,pre-steady-state target cleavage rate
1,CUUUUCCUCUGGAUCUACAGGGAUACCUAA,0.149 ± 0.017
2,CAAUACCUCUGGAUCAACUGGGUUACCUAA,0.315 ± 0.04
3,CUUAAGGAGACCUACUACUGGGUUACGUAA,0.00667 ± 0.003
4,GAAUACCUCUGGAUCUACUCGGUUACCUAA,0.0912 ± 0.018
5,CUUUUCCUCUGGAUCUAGUGGGUUACCUAA,0.212 ± 0.021
6,CUUAAGGUCUGGAUCAACUGGCUUACCUAA,0.0357 ± 0.013
7,CAAUUCCUCUGCGAUCUACUGGGUUACCUAA,0.623 ± 0.052
8,CUAUUCCUCUGGAUCUACUGGGUUACCUCA,0.242 ± 0.042
9,CUAUACCUCUGGAUCUACUGGCUUACCUAA,0.149 ± 0.025
10,CUAUUCCUCUGGAUCUACUGGGUUACGUUA,0.401 ± 0.055
11,CUUUUCCUCUGGAUCUACUGGGUAACCUAA,0.216 ± 0.033
12,CUUAACCUCUGGAUCUAGUGGGUUUCCUAA,0.0372 ± 0.0055
13,CUUAAGGAGACCUACAACUGGGUAACCUAA,< 0.0001
14,CAAUUCCUCUGGAACUAGUGGGUUACCUAA,0.258 ± 0.029
15,CUUAUCCUCUGGAUGAUCUGGGUUACCUAA,0.00979 ± 0.0035
16,CUUAAGGAGACGACCUACUGGGUUACCUAA,0.0052 ± 0.0021
17,CAAUUCCUGUGGAUCUACUGGGUUACCUAA,0.425 ± 0.051
18,CUUUUCCUCUGGAUCUACUGGGAUACGUAA,0.229 ± 0.042
19,CUUAAGCUCUCCUUCUACUGGGUUACCUAA,0.224 ± 0.024
20,GAAUUCCUUCUGGAUCUACUGGGUUACCUAA,0.403 ± 0.041
21,CUUAAGGUCUGGAGUCUACUGGGUUACCUAA,0.0832 ± 0.031
22,CUUUUCCUCUGGAUCUACUGGGCUUACCUAA,0.0685 ± 0.013
23,CUAUUCCUCUGGAUCUACUGGGUAACGUAA,0.304 ± 0.054
24,CUUUUCGUCUGGAACUACUGGGUUACCUAA,0.364 ± 0.035

row,Sequence,pre-steady-state target cleavage rate
1,CUUAAGGACUGGAUCAACUGGGUUAGCUAA,0.0166 ± 0.015
2,CAAUUCCUCUGGUUCUACUCGGUUACCUAA,0.167 ± 0.014
3,CUUAAGGACUCGAUCUACUGGGUUACCUUA,0.00924 ± 0.0031
4,CUUAUCCUGUGGAUCUACUCGGUUACCUAA,0.0654 ± 0.019
5,CUUAUCCUCUGGAUCUAGUGGGUUACCAAA,0.12 ± 0.018
6,AAAUUCCUCUGGAUCUACUGGGUUACCUAA,0.341 ± 0.062
7,CACAUUCCUCUGGAUCUACUGGGUUACCUAA,0.5 ± 0.057
8,CUUAAGGACAGGAUCUACUGGGUUACGUAA,0.16 ± 0.045
9,CUUAAGGAGACGGAUCUACUGGGUUACCUAA,0.0379 ± 0.0064
10,CUAUUCGUCUGGAUCUACUGGGAUACCUAA,0.331 ± 0.049
11,CUUAUCCUCUGGAUCUACUGGGAUAGCUAA,0.226 ± 0.059
12,CUAUUCCUCUGGGAUCUACUGGGUUACCUAA,0.514 ± 0.042
13,CUUAAGCUCUGGAUGUACUGGGAUACCUAA,0.0841 ± 0.011
14,CUUAAGGUCUGGAUCUACAGGGUUACGUAA,0.178 ± 0.021
15,CAAUUCCUCUCGAUCAACUGGGUUACCUAA,0.721 ± 0.053
16,CUAUUGCUCUGGAUCUACUGGGUUACCAAA,0.252 ± 0.035
17,CAAAUCCUCUGGAACUACUGGGUUACCUAA,0.445 ± 0.034
18,CUAAUGCUCUGGAUCUACUGGGUUACCUAA,0.105 ± 0.019
19,CUUAAGGAGAGGAUCUACUGGGUUACCUAA [g2:g20:cont:t1A],0.0369 ± 0.012
20,CUAUUCCUCUGGAUUACUGGGUUACCUAA,0.492 ± 0.037
21,CUUUUCCUCUGCAACUACUGGGUUACCUAA,0.393 ± 0.037
22,GAAUUCCUCUGGAUGAUCUGGGUUACCUAA,0.00973 ± 0.0039
23,CUUAUCCUGUGGAUGUACUGGGUUACCUAA,0.45 ± 0.061
24,CUUAAGGACUGGAACUACUGGGUUACCUAA,0.0904 ± 0.048

row,Sequence,pre-steady-state target cleavage rate
1,CUAUUCCUCUGGAUCAACUGGGAUACCUAA,0.17 ± 0.022
2,CAAUUGCUCUGGAUCUACUGCGUUACCUAA,0.344 ± 0.052
3,GAAUUCCUCUGGAGCUACUGGGUUACCUAA,0.28 ± 0.032
4,CUUUUCCUCAGGAUCUACAGGGUUACCUAA,0.277 ± 0.026
5,CUUAACCUCUGGAUCUACUGGGUUACACUAA,0.344 ± 0.042
6,CUUAUCCUCUGGAUCUACUGGGUAACCAAA,0.217 ± 0.064
7,GAAUUCCACUGGAACUACUGGGUUACCUAA,0.308 ± 0.043
8,CUUUUCCUCUGGAGUCUACUGGGUUACCUAA,0.336 ± 0.035
9,CUAUUCCUCUGGAUCUACUGGGUUUGCUAA,0.342 ± 0.064
10,CUUAAGGACUGGAUCUACUUGGUUACCUAA,0.00577 ± 0.0058
11,CAAUUCCGUCUGGAUCUACUGGGUUACCUAA,0.564 ± 0.063
12,CUUAAGGACUGGAUGUACUGCGUUACCUAA,0.0446 ± 0.037
13,CUAUUGCUCUGGAUCUACUGGGUUACCUAA,0.125 ± 0.029
14,CUAUUCGUCUGGAUCUACUGGGUUACCUUA,0.355 ± 0.049
15,CUUAAGCUCUGGAACUACUGGGUUACCUAA,0.148 ± 0.021
16,CUUAAGGUCUGGAUCUACUGGGUUAUCUAA,0.311 ± 0.048
17,GAAUUCCUCUGGAUCUUCUGGGUUAGCUAA,0.322 ± 0.051
18,CAAUUCCUCUGGAUCUACUGGGUUAGGAAA,0.00536 ± 0.0041
19,CUUAAGCUCUGGUUCUACUGGGUUAGCUAA,0.0396 ± 0.014
20,CUUAAGGAGUGGAUCUACUGUGUUACCUAA,0.326 ± 0.065
21,CUUAAGGUCUGGAAUCUACUGGGUUACCUAA,0.137 ± 0.026
22,CUUAAGGAGUGGCUCUACUGGGUUACCUAA,0.144 ± 0.014
23,CAAUUCCUCUCCAUCUACUGGGUUACCUAA,0.829 ± 0.057

# — the supplement of paper PMC10338343
